{
  "source": "PubChem BioAssay AID488969",
  "about": "(Vanderbilt High Throughput Screening Facility, 2010)",
  "note": "In all, about 110,000 compounds were measured (“z-score”: median about -0.1, highest 2% from about 2 on). The list shows a part of the results. The source made the active and inactive calls.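 The calls were made as follows: active = z-score in the third read window above 3 or below -3; inactive = the rest.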",
  "data": [
    {"target": "Metabotropic glutamate receptor 8 (Rattus norvegicus) (UniProt P70579)", "sequence (P70579 whole entry, looked up)": "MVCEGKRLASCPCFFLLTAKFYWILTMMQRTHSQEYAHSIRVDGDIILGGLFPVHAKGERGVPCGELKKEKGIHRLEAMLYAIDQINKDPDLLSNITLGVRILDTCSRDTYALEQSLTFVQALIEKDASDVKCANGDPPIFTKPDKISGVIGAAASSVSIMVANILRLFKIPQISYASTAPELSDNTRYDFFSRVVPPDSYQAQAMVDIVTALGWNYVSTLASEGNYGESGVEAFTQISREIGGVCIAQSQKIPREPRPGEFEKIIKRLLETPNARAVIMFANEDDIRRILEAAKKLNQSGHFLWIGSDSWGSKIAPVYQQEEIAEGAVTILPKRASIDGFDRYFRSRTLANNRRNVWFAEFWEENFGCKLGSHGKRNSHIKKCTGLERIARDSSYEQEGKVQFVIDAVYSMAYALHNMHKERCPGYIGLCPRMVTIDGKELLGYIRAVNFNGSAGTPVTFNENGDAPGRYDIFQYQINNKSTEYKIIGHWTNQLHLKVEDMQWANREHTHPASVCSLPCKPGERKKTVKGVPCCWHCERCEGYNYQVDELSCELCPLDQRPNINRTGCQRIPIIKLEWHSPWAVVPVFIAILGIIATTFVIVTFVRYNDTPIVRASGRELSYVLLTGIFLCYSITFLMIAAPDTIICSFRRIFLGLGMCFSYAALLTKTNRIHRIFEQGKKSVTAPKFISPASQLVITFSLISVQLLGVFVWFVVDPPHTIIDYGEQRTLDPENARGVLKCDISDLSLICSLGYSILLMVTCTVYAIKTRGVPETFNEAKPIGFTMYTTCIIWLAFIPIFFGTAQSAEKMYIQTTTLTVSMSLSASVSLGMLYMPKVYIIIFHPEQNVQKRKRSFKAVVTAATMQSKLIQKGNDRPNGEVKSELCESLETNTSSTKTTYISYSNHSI", "experiment": "rat mGluR8 modulators via GIRK flux, primary screen, cell-based, thallium flux, HTS (AID 488969)", "conditions": "HEK293 rat mGluR8, GIRK (G protein-gated inwardly rectifying potassium channel) thallium flux, FluoZin2; at 10 µM; stronger effect = higher value; submaximal glutamate (EC20) added with thallium", "values": [
      {"smiles": "CCOc1ccc(/C=C/C(=O)Nc2ccccc2C(F)(F)F)cc1", "z-score": 0.275},
      {"smiles": "O=C(Nc1cc(Cl)ccc1Cl)C1CC(=O)N(c2ccc(Br)cc2)C1", "note": "(stereo not given)", "z-score": -0.113},
      {"smiles": "O=C1CC(c2ccc(S(=O)(=O)NC3CC3)cc2)CN1", "note": "(stereo not given)", "z-score": 0.38},
      {"smiles": "Cc1ccc(C(C(=O)Nc2ccc3c(c2)OCO3)N(C)C(=O)Cc2c[nH]c3ccccc23)cc1", "note": "(stereo not given)", "z-score": -0.000845},
      {"smiles": "COC(=O)C(C)Oc1ccc(=O)[nH]n1", "note": "(stereo not given)", "z-score": 0.923},
      {"smiles": "Cc1sc2c(c1C)C(=O)NC(c1cccc(O)c1)N2", "note": "(stereo not given)", "z-score": 1.67},
      {"smiles": "O=c1c2ccccc2oc2nc(-c3cccs3)n(CCc3ccccc3)c(=O)c12", "z-score": -0.464},
      {"smiles": "N#Cc1c(NC2CCCCC2)nc(-c2ccco2)c2c1CCCC2", "z-score": -0.268},
      {"smiles": "CC1CCCCN1S(=O)(=O)c1ccc(S(=O)(=O)N(Cc2ccccc2)Cc2ccco2)cc1", "note": "(stereo not given)", "z-score": 0.0863},
      {"smiles": "Cc1ccc(N(CC(=O)N2CCN(C3CCCCC3)CC2)S(=O)(=O)c2cccnc2)cc1", "z-score": -0.0181},
      {"smiles": "COc1cc(C(=O)Nc2ccc(S(=O)(=O)N3CCCCC3C)cc2)cc(OC)c1OC", "note": "(stereo not given)", "z-score": -0.162},
      {"smiles": "Cc1oc(-c2ccccc2F)nc1CS(=O)(=O)CC(=O)NCCN(C)C1CCCCC1", "z-score": 1.48},
      {"smiles": "Cc1ccc(Cl)cc1NC(=O)CCC(=O)Nc1cc(Cl)ccc1C", "z-score": -0.263},
      {"smiles": "Cc1ccc(S(=O)(=O)NNC(=O)C2CCN(S(=O)(=O)c3ccc(C)cc3)CC2)cc1", "z-score": -0.363},
      {"smiles": "Nc1nc(SCC(=O)N2CCCC2)[nH]c(=O)c1-c1ccccc1", "z-score": -0.0491},
      {"smiles": "CC1(CC(=O)N/N=C/c2ccc(-c3ccc(Cl)cc3)o2)OCCO1", "z-score": 1.57},
      {"smiles": "Cc1ccc(NC(=O)c2cc3ccccc3o2)cc1S(=O)(=O)N(C)C", "z-score": -0.399},
      {"smiles": "COCCN(C(=S)Nc1ccc(OC)cc1)C1CCN(C(C)=O)CC1", "z-score": 0.181},
      {"smiles": "COC(=O)N1CC(c2ccccc2)CC1=O", "note": "(stereo not given)", "z-score": 1.03},
      {"smiles": "Cc1cc(C)cc(OCC(=O)Nc2ccccc2N2CCCCC2)c1", "z-score": -0.0189},
      {"smiles": "Cc1noc(C)c1S(=O)(=O)N1CCCC(C(=O)NCc2ccccn2)C1", "note": "(stereo not given)", "z-score": 0.292},
      {"smiles": "C=CCC(Nc1ccco1)c1ccccc1", "note": "(stereo not given)", "z-score": -0.144},
      {"smiles": "COc1cccc(-c2nnc(SCC(=O)Nc3ccc4c(c3)OCCO4)n2Cc2ccco2)c1", "z-score": -1.33},
      {"smiles": "CC1CN(C(=O)C2CCCCC2)C(C)CN1C(=O)C1CCCCC1", "note": "(stereo not given)", "z-score": "active: 11.1"},
      {"smiles": "O=C(CSc1nc2ccccc2c(=O)n1-c1ccccc1)N1CCN(CCO)CC1", "z-score": -0.68},
      {"smiles": "COc1ccc(S(=O)(=O)c2cnc3ccc(OC)cc3c2N2CCC3(CC2)OCCO3)cc1", "z-score": -1.24},
      {"smiles": "CCSc1ccccc1C(=O)NCc1ccc(S(N)(=O)=O)cc1", "z-score": 0.131},
      {"smiles": "Fc1ccccc1CSc1ncnc2sc3c(c12)CCCC3", "z-score": -0.212},
      {"smiles": "COc1cc(O)oc1C=Nc1ccccc1", "z-score": -0.0368},
      {"smiles": "Cc1ccc(Nc2nc(OC(C(F)(F)F)C(F)(F)F)nc(N3CCOCC3)n2)cc1", "z-score": 0.581},
      {"smiles": "O=S1(=O)CC(O)C(N2CCC(c3ccccc3)CC2)C1", "note": "(stereo not given)", "z-score": 0.737},
      {"smiles": "Cc1ccc(S(=O)(=O)CC(=O)N2CCCC2)cc1", "z-score": -0.0858},
      {"smiles": "CC(=O)O[C@H]1CC[C@@]2(C)C(CCC3C2CC[C@]2(C)OC(=O)CCC32)C1", "note": "(stereo not given in full)", "z-score": -0.388},
      {"smiles": "CCn1c(SCC(=O)N(Cc2ccccc2)C2CCS(=O)(=O)C2)nc2ccccc2c1=O", "note": "(stereo not given)", "z-score": 0.0946},
      {"smiles": "Cc1csc(N(C)C(=O)CSc2nnc(COc3ccccc3C)o2)n1", "z-score": 0.03},
      {"smiles": "O=C(NCc1ccco1)C(Cc1ccccc1)N1C(=O)c2ccccc2C1=O", "note": "(stereo not given)", "z-score": -1.05},
      {"smiles": "COCCNC(=O)CN1CCN(Cc2cccc(Cl)c2)C1=O", "z-score": 0.748},
      {"smiles": "COC(=O)c1ccccc1NC(=O)CNC(=O)c1ccco1", "z-score": -0.308},
      {"smiles": "Cc1ccc2c(c1)[nH]c1c(=O)n(Cc3ccccn3)cnc12", "z-score": -0.835},
      {"smiles": "CC(C)c1ccc(-c2cc(C(=O)N3N=C(C(F)F)CC3(O)C(F)F)c3ccccc3n2)cc1", "note": "(stereo not given)", "z-score": -0.144},
      {"smiles": "COc1cc(/C=N\\NC(=O)C2CC3C=CC2C3)ccc1O", "note": "(stereo not given)", "z-score": -0.0835},
      {"smiles": "CCC(=O)Nc1c(S(=O)(=O)c2ccccc2)c2nc3ccccc3nc2n1Cc1ccccc1", "z-score": -0.5},
      {"smiles": "CCOC(=O)c1c2ccc(OCC(=O)N/N=C/c3ccccc3C(F)(F)F)cc2n2ccccc12", "z-score": -0.472},
      {"smiles": "COc1ccccc1C(C)NC(=O)c1ccc(C)o1", "note": "(stereo not given)", "z-score": -0.152},
      {"smiles": "Cn1c(SCCCC(=O)c2ccc(Br)cc2)nnc1-c1ccncc1", "z-score": -0.186},
      {"smiles": "COc1cccc(-n2c(N)c(C#N)c3ccc([N+](=O)[O-])cc3c2=O)c1", "z-score": 0.0503},
      {"smiles": "Cc1ccc(CNC(=O)C2CCC(=O)N2CCc2ccccc2)cc1", "note": "(stereo not given)", "z-score": 0.123},
      {"smiles": "COCCSc1nnc(NC(=O)Cc2cccs2)s1", "z-score": 0.124},
      {"smiles": "COc1ccccc1NC(=O)N1CCN(c2cc(-c3ccccc3)nc3ncnn23)CC1", "z-score": -1.42},
      {"smiles": "CC1CCN(Cc2nc3c(c(=O)n(C)c(=O)n3C)n2CCCc2ccccc2)CC1", "z-score": -0.163},
      {"smiles": "CCOC(=O)C1(C)NC(c2ccc(N(C)C)cc2)C2C(=O)N(CC)C(=O)C21", "note": "(stereo not given)", "z-score": -0.204},
      {"smiles": "COCCN1C(=O)c2ccccc2C(C(=O)N2CCN(c3ccccc3)CC2)C1c1ccc(F)cc1", "note": "(stereo not given)", "z-score": -0.216},
      {"smiles": "O=S(=O)(c1ccc(Nc2ccc(-c3ccc4c(c3)OCCO4)nn2)cc1)N1CCCC1", "z-score": -0.0326},
      {"smiles": "Cc1nnn(C23CC4CC(CC(CC(=O)Nc5ccc(C)c(Cl)c5)(C4)C2)C3)n1", "z-score": -0.593},
      {"smiles": "COc1ccc2cc(/C=C3\\SC(=S)NC3=O)c(N3CCOCC3)nc2c1", "z-score": 0.195}
    ]}
  ]
}
